# According to PubChem BioAssay (Tox21):
# This list was built around the results that the source calls inconclusive (neither active nor inactive); the mix of calls is not that of the screen. For some of these results: Potencies beside an inconclusive call are fits to weak or partial responses and may not hold up. The source made the active and inactive calls. Unless noted, calls follow the shape of the dose curve; as a rule, active = well fitted curve in the direction sought with a large enough effect in the repeat runs; inconclusive = weak or mixed curves; inactive = no such curve, though single readings can be large; an effect the other way counts as inactive or inconclusive.
# Legend:
# [1] = qHTS assay to identify small molecule agonists of the hypoxia (HIF-1) signaling pathway - cell viability counter screen (AID 1224844; calls by dose curve; also: nearly all actives have a fitted effect of over 50% in size; also: potency is read from the fitted curve at half-maximal effect; as to activity change, negative = cytotoxicity: % is scaled to controls: 0 for no effect and ±100 for the full control effect)
# In short: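 HRE-bla ME-180 cells, 2,000/well in 0.5% dialyzed FBS medium, treated 17 h at 37C with compounds. Viability read in the same wells as the bla reporter, by CellTiter-Glo luminescence after 30 min at room temperature.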
# [2] = qHTS assay to identify small molecule antagonists of the androgen receptor (AR) signaling pathway using the MDA cell line - cell viability counter screen (AID 743041; also: % is scaled to controls: 0 for no effect and ±100 for the full control effect; nearly all actives have a fitted effect of over 45% in size); details: MDA-kb2 viability, CellTiter-Fluor, 16 h, cells co-treated with R1881 androgen agonist; viability change, negative = cytotoxic: at 70.3 µM (top of the series)
# In short: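 Same-well cytotoxicity was assessed by CellTiter-Fluor in MDA-kb2 AR-luc cells after 16 h of compound treatment under R1881 agonism.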
# [3] = qHTS assay to identify small molecule antagonists of the estrogen receptor alpha (ER-alpha) signaling pathway using the BG1 cell line (AID 743080; calls by dose curve;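 also: BG1 cells stimulated with 17beta-estradiol alongside compound; % is scaled to controls: 0 for no effect and ±100 for the full control effect; nearly all actives have a fitted effect of over 25% in size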); details: BG1Luc4E2 ERE-luciferase antagonist mode, luminescence; activity change, negative = inhibition: at 70.3 µM (top of the series) unless noted
# In short: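 BG1-Luc-4E2 cells (endogenous full-length ER-alpha, 4xERE luciferase) hormone-starved 5 days in charcoal-stripped FBS, plated 4,000/well for 24 h, then compound plus 17beta-estradiol for 21.5 h at 37 C; ONE-Glo luminescence read.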
# [4] = qHTS assay to identify small molecule antagonists of the estrogen receptor alpha (ER-alpha) signaling pathway using the BG1 cell line - cell viability counter screen (AID 743081); details: BG1Luc4E2 viability, CellTiter-Fluor, 22 h; activity change, negative = cytotoxicity: at 70.3 µM (top of the series) unless noted;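 also: compound given together with 17beta-estradiol as the ER stimulus; % is scaled to controls: 0 for no effect and ±100 for the full control effect; nearly all actives have a fitted effect of over 45% in size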
# [5] = qHTS RealTime-Glo MT Cell Viability Assay in HEK293 cells - 16 hour (AID 1224872); also: potency is read from the fitted curve at half-maximal effect; nearly all actives have a fitted effect of over 50% in size
# In short: (§1)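 HEK293 cells seeded with NanoLuc/prosubstrate reagent, rested 5 h at 37 C, then dosed and kept at 37 C up to 40 h. Nonlytic real-time luminescence from viable cells read at 0, 8, 16, 24, 32 and 40 h.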
# [6] = qHTS RealTime-Glo MT Cell Viability Assay in HEK293 cells - 40 hour (AID 1224874); details: RealTime-Glo luminescence; max response: hits give low values; also: potency is read from the fitted curve at half-maximal effect; nearly all actives have a fitted effect of over 50% in size
# In short: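 600 cells/well were plated with the nonlytic NanoLuc/prosubstrate reagent, pre-incubated 5 h, then given 23 nL of compound in DMSO. Incubation at 37 C for 40 h, with luminescence from viable-cell-reduced substrate read repeatedly from 0 h.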
# [7] = qHTS RealTime-Glo MT Cell Viability Assay in HEK293 cells - 24 hour (AID 1224886); also: potency is read from the fitted curve at half-maximal effect; nearly all actives have a fitted effect of over 50% in size
# In short: as §1
# [8] = molecular target: Thyrotropin receptor (Homo sapiens) (UniProt P16473); experiment: qHTS assay to identify small molecule antagonists of the thyroid stimulating hormone receptor (TSHR) signaling pathway (AID 1259385; calls by dose curve; also: % is scaled to controls: 0 for no effect and ±100 for the full control effect; nearly all actives have a fitted effect of over 20% in size); details: TSHR-HEK293 cAMP HTRF, TSH-stimulated antagonist mode; activity change, negative = inhibition: at 92.4 µM (top of the series) unless noted
# In short: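 TSHR-HEK293 cells (800/well) plated 18 h, then compounds with Ro20-1724 and TSH at 1.5 ng/mL final, 30 min at room temperature. cAMP quantified by HTRF (cAMP-d2/anti-cAMP-cryptate, 1 h); 15 concentrations in triplicate.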
# [9] = qHTS assay to identify small molecule antagonists of the TGF-beta/Smad signaling pathway (AID 1346924; active = well fitted inhibition curve with a large enough effect in the signal ratio in the repeat runs, not every such curve was filed as active; inconclusive = weak or mixed curves; the % refers to the signal ratio); details: SBE-bla HEK293T, TGF-beta/Smad reporter, beta-lactamase ratio; activity, negative = inhibition: at 76.8 µM (top of the series) unless noted
# In short: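 SBE-bla HEK 293T cells were plated overnight, then received compound in DMSO plus TGF-beta1 (added as a 0.25 ng/mL solution) and were incubated 5 h at 37 C. Beta-lactamase reporter activity was read after 2 h at room temperature with LiveBLAzer B/G FRET substrate (ex 405, em 460/530 nm).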
# [10] = qHTS assay to identify small molecule agonists of the vitamin D receptor (VDR) signaling pathway - cell viability counter screen (AID 743224)
# In short: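 VDR-bla cells, 4 h after plating, exposed to compounds for 16 h at 37C; viability then read in the same wells as CellTiter-Glo luminescence after 30 min at room temperature, following the bla FRET read.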
# Tags tell the direction and shape of the fitted curve.
# UniProt P16473, sequence (P16473 whole entry, looked up): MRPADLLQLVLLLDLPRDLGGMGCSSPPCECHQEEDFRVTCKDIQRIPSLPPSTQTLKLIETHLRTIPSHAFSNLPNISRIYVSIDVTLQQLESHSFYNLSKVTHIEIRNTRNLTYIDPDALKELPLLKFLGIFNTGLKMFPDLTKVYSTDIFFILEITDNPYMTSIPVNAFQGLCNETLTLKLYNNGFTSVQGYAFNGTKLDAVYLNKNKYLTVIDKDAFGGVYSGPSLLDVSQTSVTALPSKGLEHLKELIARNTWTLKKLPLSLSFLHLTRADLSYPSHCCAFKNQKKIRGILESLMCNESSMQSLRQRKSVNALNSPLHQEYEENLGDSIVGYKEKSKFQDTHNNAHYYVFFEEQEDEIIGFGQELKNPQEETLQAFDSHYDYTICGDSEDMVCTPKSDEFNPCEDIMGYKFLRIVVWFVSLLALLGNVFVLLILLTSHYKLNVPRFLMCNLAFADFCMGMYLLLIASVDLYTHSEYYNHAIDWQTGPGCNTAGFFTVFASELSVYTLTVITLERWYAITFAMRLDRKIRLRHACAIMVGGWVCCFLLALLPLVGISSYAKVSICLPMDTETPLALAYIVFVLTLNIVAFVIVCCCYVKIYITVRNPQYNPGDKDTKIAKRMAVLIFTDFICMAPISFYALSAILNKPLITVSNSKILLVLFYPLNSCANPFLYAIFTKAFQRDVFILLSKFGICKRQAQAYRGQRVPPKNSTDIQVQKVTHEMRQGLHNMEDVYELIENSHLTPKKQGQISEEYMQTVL
smiles,measurement,setting,value
CCCCCN(CCCCC)C(=O)C(CCC(=O)O)NC(=O)c1ccc(Cl)c(Cl)c1 (stereo not drawn),Potency,[1],"inconclusive: 12 µM [cytotoxic, partial curve]"
Cc1cc(C)c(C)cc1C,Potency,[2],inactive
same,Potency,[3],inactive
C[C@@H]1CC[C@@]2(OC1)O[C@H]1C[C@H]3[C@@H]4CC[C@H]5C[C@@H](O)CC[C@]5(C)[C@H]4CC(=O)[C@]3(C)[C@H]1[C@@H]2C,Potency,[4],inactive
CCCCOC(=O)[C@@H](C)Oc1ccc(Oc2ccc(C(F)(F)F)cn2)cc1,Potency,[5],active: 31.1 µM
same,Potency,[6],"inconclusive: 49.3 µM [cytotoxic, partial curve]"
same,Potency,[7],active: 31.1 µM
same,"activity change, negative = inhibition",[8],inconclusive: -16.1%
same,"activity, negative = inhibition",[9],inconclusive: -1.49%
Cc1ccccn1,Potency,[2],inactive
CC(=O)N[C@@H](CC(C)C)C(=O)O,Potency,[1],inactive
C=CCOC(=O)CCCCCCCC,Potency,[3],inactive
same,Potency,[10],"inconclusive: 17.5 µM [rising, partial curve, poor fit]"
